# Hit rate of the full screen: of about 310,000 compounds, about 2,200 (0.71%) showed an effect of 50% or more. The effect is printed as a negative number. This is one part of the list.
# Biological target: human ether-à-go-go-related gene (hERG) potassium channel (human, UniProt Q12809)
# Experiment: primary screen, population patch clamp on CHO cells stably expressing hERG
# Sequence of human ether-à-go-go-related gene (hERG) potassium channel (Q12809 whole entry, looked up): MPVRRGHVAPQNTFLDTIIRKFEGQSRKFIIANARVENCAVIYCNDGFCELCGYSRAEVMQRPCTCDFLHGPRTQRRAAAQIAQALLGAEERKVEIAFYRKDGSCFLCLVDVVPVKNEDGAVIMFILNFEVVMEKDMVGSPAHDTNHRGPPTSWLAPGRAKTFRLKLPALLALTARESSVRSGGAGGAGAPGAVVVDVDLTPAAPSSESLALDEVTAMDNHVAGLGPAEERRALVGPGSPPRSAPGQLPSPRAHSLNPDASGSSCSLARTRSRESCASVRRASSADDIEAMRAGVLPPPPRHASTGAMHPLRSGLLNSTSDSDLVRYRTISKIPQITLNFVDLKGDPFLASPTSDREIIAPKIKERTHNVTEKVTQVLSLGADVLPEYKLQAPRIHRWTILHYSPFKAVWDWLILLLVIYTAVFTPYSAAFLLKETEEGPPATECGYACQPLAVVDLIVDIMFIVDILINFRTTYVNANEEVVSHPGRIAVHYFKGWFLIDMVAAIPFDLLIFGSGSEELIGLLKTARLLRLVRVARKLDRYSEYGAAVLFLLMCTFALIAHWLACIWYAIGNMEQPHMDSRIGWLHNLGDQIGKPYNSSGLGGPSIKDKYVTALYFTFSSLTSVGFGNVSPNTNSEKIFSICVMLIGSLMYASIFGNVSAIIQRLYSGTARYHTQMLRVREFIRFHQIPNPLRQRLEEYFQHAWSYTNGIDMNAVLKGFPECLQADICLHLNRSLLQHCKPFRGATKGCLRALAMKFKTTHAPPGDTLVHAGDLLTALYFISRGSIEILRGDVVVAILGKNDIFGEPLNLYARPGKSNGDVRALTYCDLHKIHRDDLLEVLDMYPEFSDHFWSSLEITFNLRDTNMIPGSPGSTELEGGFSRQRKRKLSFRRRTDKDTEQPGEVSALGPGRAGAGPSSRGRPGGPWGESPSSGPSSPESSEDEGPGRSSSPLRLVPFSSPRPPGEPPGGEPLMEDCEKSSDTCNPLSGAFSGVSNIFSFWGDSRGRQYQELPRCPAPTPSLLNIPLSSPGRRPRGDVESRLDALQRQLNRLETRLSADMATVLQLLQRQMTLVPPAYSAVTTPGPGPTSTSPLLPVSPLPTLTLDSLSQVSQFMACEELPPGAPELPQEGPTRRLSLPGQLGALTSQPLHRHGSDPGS
row,SMILES,"hERG current change (%, negative = inhibition) at 1uM"
1,O=Cc1c(C(=O)O)n(Cc2ccc(F)cc2Cl)c2ccccc12,13.9%
2,COc1cc(C2CC(c3c(C)cc(C)[nH]c3=O)=NN2c2ccccc2F)cc(OC)c1OC (centres unmarked),9.5%
3,Cc1cccc(NC(=S)N2CCOCC2)c1C,1.96%
4,COC(=O)C1=CN(c2cccc(C)c2)C=C(C(=O)OC)C1c1cc(OC)c(O)c([N+](=O)[O-])c1,12.8%
5,CC1CC(C)CN(C(=O)C(Cc2ccccc2)NC(=O)c2ccccc2)C1 (centres unmarked),4.65%
6,Fc1ccc(-n2[nH]nnc2=S)cc1N1CCCC1,18.4%
7,c1ccc2c(c1)CCCC2NC1=NCCC1 (centres unmarked),-4.9%
8,Cn1cccc1CC(=O)NNC(=S)Nc1ccc(Cl)cc1Cl,10.4%
9,CC(C)C(NCc1c(Cl)cccc1Cl)C(=O)O (centres unmarked),4.7%
10,NS(=O)(=O)c1ccc(CCNC(=O)CCC2COc3ccccc3O2)cc1 (centres unmarked),6.61%
11,COc1ccc(CCC(C)NC(=O)Cc2ccc(OC)c(OC)c2)c(OC)c1 (centres unmarked),16.5%
12,CN(C)c1ccc(/C=N/c2cc(-c3ccccc3)nn2-c2ccccc2)cc1,-3.67%
13,Cc1ccnc(N2C(=O)c3cccc4c([N+](=O)[O-])ccc(c34)C2=O)c1,8.63%
14,Cc1cccc(NC(=O)CNC(=O)c2cccs2)n1,14.9%
15,CCN1CCN(C(=O)COc2ccc3c(c2)C(=O)CC2(CCN(C(C)=O)CC2)O3)CC1,18.1%
16,COc1ccccc1NC(=O)C(C)Sc1nnc2ccccn12 (centres unmarked),9.38%
17,Cc1n[nH]c(=O)c2c(NC(=O)CSc3ccccc3Cl)oc(C)c12,-7.79%
18,Cc1ccc2nc(NC(=O)C3CCN(S(=O)(=O)c4cc([N+](=O)[O-])ccc4Cl)CC3)sc2c1,-2.71%
19,Cc1ccc(NC2c3ncccc3C(=O)N2Cc2cccs2)cc1 (centres unmarked),0.478%
20,Cc1cc(OCC(=O)OCC(=O)NC2CCCCCC2)ccc1Cl,11.8%
21,COc1ccccc1N(C(=O)c1snc(C(N)=O)c1N)C(C(=O)NC1CCCC1)c1ccc(N(C)C)cc1 (centres unmarked),11.9%
22,O=C(CSc1ccc(Cl)cc1)Nc1cccc(-c2nc3ncccc3o2)c1,7.51%
23,CCOC(=O)c1nc(-c2ccc(OC)c(OC)c2)cnc1C#N,5.05%

row,SMILES,"hERG current change (%, negative = inhibition) at 1uM"
1,O=C(CN1C(=O)NC2(CCc3ccccc32)C1=O)Nc1ccc(N2CCOCC2)cc1 (centres unmarked),9.49%
2,CCOc1cccc(-c2c(C(=O)N/N=C(\C)c3ccccn3)nnn2-c2nonc2N)c1,10.5%
3,COc1cc(NC(=O)c2cnn3c(C(F)F)cc(C4CC4)nc23)c(OC)cc1Cl,6.95%
4,CC(=O)Nc1ccc(NC(=O)C2CC(=O)N(c3ccc(Cl)cc3)C2)cc1 (centres unmarked),2.97%
5,CN(Cc1ccccc1F)c1nc(-c2cccnc2)nc2ccccc12,13.1%
6,Cc1ccc(S(=O)(=O)c2nc(S(C)(=O)=O)sc2N2CCC(C)CC2)cc1,16.5%
7,COC(=O)c1ccc2c(=O)n(CCCCCC(=O)NCCNC(C)=O)c(=O)[nH]c2c1,3.48%
8,Cc1ccc(C(=O)NC2CCN(CC(=O)NCc3cccs3)CC2)cc1,2.06%
9,Cc1ccc(C(C(=O)NCc2ccco2)N(C(=O)CNC(=O)c2cccs2)c2ccc(C)cc2C)cc1 (centres unmarked),10.3%
10,COC(=O)CCNC(=O)c1ccc2nc(Cc3ccc(OC)c(OC)c3)oc2c1,12.8%
11,CCOP(=O)(OCC)C1(C(=O)[O-])CCCC1.[NH4+],4.97%
12,CCCCn1c(SCC(=O)Nc2nnc(CC)s2)nc2ccccc2c1=O,9.12%
13,CCN(CC)CCN(CC)Cc1ccccc1Br,1.33%
14,FC(F)(F)c1cnc(-c2cnc(-c3ccncc3)nc2)c(Cl)c1,7.49%
15,Br.O=C(Cn1c(NCCO)nc2ccccc21)c1ccco1,8.49%
16,O=C1N(c2ccccc2C(F)(F)F)O[C@@]1(c1ccccc1)C1CCCC1,9.53%
17,CN1c2ccccc2-c2nc3ccccc3n2C1c1ccco1 (centres unmarked),4.94%
18,Cc1[nH]nc(SCC(=O)NC(C)c2ccccc2)c1[N+](=O)[O-] (centres unmarked),9.39%
19,O=C1CC(N2CCSCC2)C(=O)N1c1ccc(Br)cc1 (centres unmarked),4.38%
20,CC(=O)Nc1cccc(N/C=C(\C=O)c2nc3ccccc3o2)c1,-4.54%
21,NC(=O)c1cc(S(=O)(=O)NCc2ccc(F)cc2)cs1,10.3%
22,COc1ccc(-c2csc(=Nc3c(C)n(C)n(-c4ccccc4)c3=O)n2C(C)(C)C)cc1,0.379%
23,CCC(=C(c1ccc(OC)cc1)c1ccc(OC)cc1)c1cn(CC(O)CN2CCN(C)CC2)c2ccccc12 (centres unmarked),2.64%

row,SMILES,"hERG current change (%, negative = inhibition) at 1uM"
1,COc1cc(C(=O)N/N=C/c2ccc(OC(=O)c3ccccc3Cl)cc2)ccc1O,8.38%
2,COc1ccccc1Nc1nc(-c2sc(NC(=O)CC(C)C)nc2C)cs1,8.73%
3,O=C(CCN1C(=O)C2C3C=CC(C3)C2C1=O)N1CC(=O)N(CCc2ccccc2)C(=O)C1 (centres unmarked),1.49%
4,O=C(CSc1nnnn1C1CC1)N1CCN(c2ccc(O)cc2)CC1,8.62%
5,O=C(NC1CC1)C1=C[C@@H](C2CCCCC2)C[C@@H](OCc2ccc(CO)cc2)O1,10.8%
6,O=C(NCc1cn2ccccc2n1)C1CCC(=O)N(Cc2ccccc2F)C1 (centres unmarked),8.19%
7,Cc1ccc(C(=O)c2cc(C)sc2NC(=O)CN2CCN(C(=O)c3ccco3)CC2)cc1,-3.97%
8,CCN1/C(=C2\C(=O)N(C)C(=S)N2C)C=Cc2cc(C)ccc21,2.44%
9,CCCCNCc1ccc(OCc2ccc(Cl)nc2)c(OC)c1.Cl,1.51%
10,COc1ccc(C2(C(N)=O)CCCCC2)cc1OC,13.5%
11,Cc1ccc(NC(=O)CSCC(=O)Nc2nnc(C)s2)cc1,10.5%
12,Cc1ccccc1NC(=O)c1cccc(NC(=O)c2ccco2)c1,10.6%
13,CC(=O)N1CCN(C(=O)CCc2nc3sc4c(c3c(=O)[nH]2)CCCC4)CC1,8.39%
14,COc1ccc(-c2sc(C(=O)c3ccc(Cl)cc3Cl)cc2CC(=O)O)cc1,14.2%
15,Cc1ccc2c(c1)C1CN(C)CCC1N2S(=O)(=O)c1ccccc1F (centres unmarked),6.35%
16,N#CCC(=O)c1sccc1-n1cccc1,16.4%
17,COCCn1c(C)cc(C(=O)COC(=O)c2ccc(Br)o2)c1C,-13.5%
18,CC(=O)NN1C(=O)c2ccccc2NC1c1cccnc1 (centres unmarked),14.8%
19,COc1ccc(N2CCC(CNC(=S)Nc3c(C)cccc3C)C2)cc1 (centres unmarked),9.6%
20,CC(C)(C)c1ccc(C(=O)NNC(=O)CCc2ccccc2)cc1,10.1%
21,COc1ccc(CNC(=S)N2CCN(Cc3ccccc3)CC2)cc1,3.02%
22,COc1ccc2nc(C)cc(Sc3nc4ccccc4s3)c2c1,6.95%
23,O=C1Nc2ncccc2OC1CCO (centres unmarked),21.3%

row,SMILES,"hERG current change (%, negative = inhibition) at 1uM"
1,O=C(N/N=C/c1coc2ccccc2c1=O)c1cc2ccccc2o1,3.5%
2,C/C(=N\NC(=O)CCc1ccccc1)c1ccc(Br)cc1,9.74%
3,CCNc1cc(N2CCCC2)ccc1[N+](=O)[O-],10.9%
4,CC(C)c1nnc(SCC(=O)Nc2ccc3c(c2)OCCO3)n1C,2.19%
5,Cc1[nH]n(-c2ccccc2)c(=O)c1C=NC1CCCCC1,-0.515%
6,O=C(CN1CCN(S(=O)(=O)N2CCCCC2)CC1)Nc1ccc(Cl)c(Cl)c1,3.09%
7,Cc1nc(SCC(=O)NC(C)(C)C)c2c(-c3cccs3)csc2n1,-2.23%
8,Fc1ccccc1Nc1n[nH]c(=S)s1,17.1%
9,CCOCC(=O)Nc1nc2c(s1)C(=O)CC(C)(C)C2,7.91%
10,COc1ccccc1NC(=O)Cc1csc(NC(=O)c2ccccc2)n1,7.04%
11,Cc1ccc(NC(=O)c2ccccc2)cc1,10.4%
12,CCOc1ccc(S(=O)(=O)N2CCc3cc(OC)c(OC)cc3C2)cc1,-5.69%
13,COC(=O)CN1C(=O)N/C(=C/c2ccccc2OC)C1=O,-0.284%
14,CCOC(=O)c1c(CSc2ccccc2)n(C)c2cc(Br)c(OC)c(O)c12,10.8%
15,Cc1cccc2sc(N(CCCN(C)C)C(=O)c3cc4ccccc4oc3=O)nc12.Cl,-8.2%
16,Cc1cc(N)n(-c2ccc(C)c(C)c2)n1.Cl,19.1%
17,CCOC(=O)[C@H]1[C@H]2COc3ccc(Cl)cc3[C@@H]2N2C(=O)c3ccc(Cl)cc3NC(=O)[C@@]12C,8.9%
18,CCCCNC(=O)c1ccc(CS(=O)(=O)c2ccc(OC)cc2)o1,0.154%
19,CC(/C=N/Nc1nc(C)cc(C)n1)=C\c1ccc(C(C)C)cc1,7.29%
20,CCc1ncc(C(=O)c2ccc(OC)cc2)n1C,10.7%
